The whole screen tested about 52,000 compounds, of which about 4,300 (8.3%) were called active. No stated cut-off is given here; in the data, active means survival mostly below about 52% (no sharp cut-off); inactive means mostly above about 56%. This is one part of the list.

The test system of this experiment is DeltatarO mutant. In words: growth inhibition of S. aureus wild type versus tarO mutant, primary screen, teichoic acid synthesis inhibitors, RN4220, OD600 (AID 463173). The settings on record: OD600, 18 h, hits give low values, screened at 18.75 µg/mL (by protocol).
Regarding `CCOc1ccc(CCNC(=O)c2cc3cc4cc(OC)ccc4nc3s2)cc1OCC`, the survival was inactive: 107%. Take `CCOc1ccccc1NC(=O)C(=O)c1cc(C)n(-c2cccc(C)c2C)c1C`: the survival was inactive: 68%. The value for `Cc1cccc(NC(=O)CCN2CCC(C)CC2)c1` was inactive: 91%.

`COc1ccccc1NC(=O)C1=C(C)Nc2nc(SCc3ccccc3F)nn2C1c1ccncc1` (centres undefined): the survival is inactive: 153%. In the case of `CC(C)Cc1nn2c(=O)cc(COC(=O)c3ccccc3NC(=O)c3cccs3)nc2s1`, the survival was inactive: 67%. The value for `COc1ccc(OC)c(CNC(=O)c2cc(S(=O)(=O)N3CCC(C)CC3)cn2C)c1` was inactive: 73%; that for `CN(c1ccccc1)S(=O)(=O)c1nnc(NC(=O)c2ccco2)s1` was inactive: 47%. `Cc1ccccc1NC(=O)c1cc2sccc2n1Cc1ccc(F)cc1`: the survival was inactive: 88%.

For `CCOc1ccc(-c2c(C)nn3c(C)c(C(=O)Nc4cccc(Cl)c4C)cnc23)cc1OCC`, the survival is inactive: 76%. The value for `COCCN1Cc2cccc(C(=O)Nc3ccc(C(=O)OC)cc3)c2C1=O` was inactive: 82%; that for `Cc1ccc(NC(=O)c2cc(S(=O)(=O)N3CCC(C)CC3)cn2C)cc1Cl` was inactive: 80%; that for `Cc1cc2cc(CCNS(=O)(=O)c3ccc(Br)cc3)c(=O)[nH]c2cc1C` was inactive: 48%. The value for `COc1ccccc1C(=O)Nc1ccc2nc(SCC(=O)N3CCCC3)sc2c1` was inactive: 88%. In the case of `CCCCc1cc(O)c(CCCC)c(O)c1`, the survival was active: 12%. The value for `COCCNC(=O)CCCn1c(SCC(=O)c2ccc(F)cc2)nc2c(sc3ccccc32)c1=O` was inactive: 85%; that for `Cc1ccc(NC(=O)/C(C#N)=C\c2ccc(-c3ccc(Cl)cc3)o2)c(C)c1` was inactive: 77%; that for `COc1cc(/C=N/NC(=O)c2cccc(N3CCCC3=O)c2)ccc1O` was inactive: 92%. `COc1cc2oc(=O)c(CC(=O)NCCc3ccccc3)c(C)c2cc1Cl`: the survival was inactive: 78%. With `CCOC(=O)CCn1c(=O)c2cccn2c2cccnc21`, the survival was inactive: 90%. `CSc1nn(Cc2ccccc2C)c(NC(C)=O)c1S(=O)(=O)c1ccc(C)cc1`: the survival was inactive: 75%. Turning to `COc1ccc(NC(=O)CCc2nc3c(C)nn(-c4ccc(C)cc4)c3n(C)c2=O)c(OC)c1`, the survival was inactive: 77%. Then `CCc1ccc(CN(C(=O)c2ccc(OC)cc2)C2CCS(=O)(=O)C2)cc1` (centres undefined), with inactive: 79%; and `CCOC(=O)c1ccc(NC(=O)CC2Nc3cccc4cccc(c34)NC2=O)cc1` (centres undefined), with active: 28%. Consider `Cc1noc(C)c1S(=O)(=O)Nc1ccc(C(=O)Nc2ccc(C(C)C)cc2)cc1`, for which the survival is active: 52%. For `COc1ccc(-c2onc(C)c2C)cc1S(=O)(=O)N1CCc2ccccc21`, the survival was active: 6%. The value for `O=C1CCC(=O)N1CC(O)CCOc1ccc(OCCC(O)CN2C(=O)CCC2=O)cc1` (centres undefined) was inactive: 74%.

As to `Cc1cc(Br)cc(C)c1NC(=O)c1cnc2ccccn2c1=O`, the survival was inactive: 106%. As to `Cn1c2c(c(=O)n(C)c1=O)C(c1cccc(O)c1)CC(=O)N2` (centres undefined), the survival is inactive: 99%. Regarding `Cn1c(-c2ccccc2)cnc1SCc1ccccc1`, the survival was inactive: 108%. For `COc1cccc(NS(=O)(=O)c2ccc3[nH]c4c(c3c2)CCCCCC4)c1`, the survival was inactive: 72%. As for `S=c1[nH]nc(NCCc2ccccc2)s1`, the survival is inactive: 84%. The value for `Cc1ccc2nc(N(Cc3cccnc3)C(=O)c3ccco3)sc2c1` was inactive: 91%; that for `COc1ccc(-c2c(C)c3ccc(O)c(CN4CCCCC4)c3oc2=O)cc1OC` was inactive: 84%. The value for `CN1CCN(C(=S)NCC2CCCO2)CC1` (centres undefined) was inactive: 64%; that for `CCOC(=O)c1c(NC(=O)CCCOc2ccc(C)cc2)sc2c1CCC(C)C2` (centres undefined) was active: 10%. With `CCc1ccc(-n2c(SCc3nc(-c4cc(OC)ccc4OC)no3)nnc2-c2ccccc2)cc1`, the survival was inactive: 70%. As to `CCOC(=O)Cn1c(=O)n(-c2ccccc2OC)c2nc(-c3ccccc3)nc(C(N)=O)c21`, the survival is active: -1%. The value for `CCc1nnc(SCC(=O)Nc2ccc(Cl)cc2F)c2cc3occc3n12` was inactive: 58%. Turning to `CCc1ccc(CNC(=O)c2ccc(CS(=O)c3ccc(Br)cc3)o2)cc1` (centres undefined), the survival was inactive: 108%. On to `Cc1cccc(N2CCN(C(=O)c3cn(C)c4ccc(S(=O)(=O)N(C)C)cc4c3=O)CC2C)c1` (centres undefined), for which the survival was inactive: 84%. Turning to `CCn1c(C(=O)NCc2ccc(C)cc2)cc2sc(Cl)cc21`, the survival is inactive: 92%. Then `COc1ccc(-c2nc3ccccc3s2)cc1NC(=O)c1ccc(C#N)cc1F`, with inactive: 168%; and `COc1cc2c3c(c1)C1(C(=O)N3C(C)(C)C=C2C)C(C#N)=C(N)NC(=O)C1C(N)=O` (centres undefined), with inactive: 86%. The value for `COc1cc2c(cc1NC(=O)COc1ccc(Br)c(C)c1)oc1ccccc12` was inactive: 49%; that for `CCC12CN3CC(CC)(CN(C1)C3c1cccc(OC)c1O)C2=O` (centres undefined) was inactive: 88%; that for `CC(C)c1ccc(NC(=O)CSc2ncnc3c2sc2ccccc23)cc1` was inactive: 70%.

For the molecule `COc1ccccc1CNCc1ccc(C(=O)O)s1`, the survival was inactive: 105%. As for `O=S(=O)(Nc1ccccc1-c1ccccc1)c1cccs1`, the survival is inactive: 107%.

On to `Clc1cccc(CSc2nc(NCCc3ccccc3)c3ccccc3n2)c1`, for which the survival is inactive: 102%. Then `CC(C)c1ccc(NC(=O)c2ccc3oc(=O)c(S(=O)(=O)c4ccc(F)cc4)cc3c2)cc1`, with inactive: 86%.

`COc1cn(CC(=O)Nc2c(C)cc(C)cc2C)c(CN2CCCCC2)cc1=O`: the survival is inactive: 98%. The value for `CS(=O)(=O)N(CC(=O)N1CCCCC1)c1sc2c(c1C#N)CCCC2` was inactive: 103%; that for `CCOc1ccc(S(=O)(=O)NCCc2csc3nc(-c4ccc(OC)c(OC)c4)nn23)cc1` was inactive: 89%. For `CCN(CC)c1ccc(NC(=O)CN(C)S(=O)(=O)c2cccc3nsnc23)c(C)c1`, the survival was inactive: 128%. As to `CCOc1ccc(C2C(=O)N(C3CCCCCC3)CC(=O)N2Cc2ccc(F)cc2)cc1OC` (centres undefined), the survival was inactive: 117%.

In the case of `CCN(CC)c1ccc(C(=O)NCc2ccc3c(c2)CCN3C(=O)c2cccc(C)c2)cc1`, the survival was inactive: 102%. The value for `CCOc1ccc(CCNC(=O)C(CC(C)C)N2Cc3ccccc3C2=O)cc1OCC` (centres undefined) was inactive: 89%; that for `CCOc1ccccc1NC(=O)Nc1ccc2nc(N3CCN(C)CC3)cc(C)c2c1` was inactive: 75%. The value for `COc1c(C)cccc1C(=O)Nc1ccc(Cl)c(-c2nc3cc(C)ccc3o2)c1` was active: 6%.

The values are drawn from PubChem BioAssay AID463173 (ICCB-Longwood Screening Facility, Harvard Medical School, 2010).
